Source: the supplement of paper PMC4604168 (melanoma cell lines)
Some of the results follow. Repeats are few or missing, and single values can be far off.
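Also: cell number obtained by counting DAPI-stained nuclei in high-throughput microscope images with image analysis software, screen run in 1,536-well plates.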

What follows are compounds tested on LOXIMVI (assay: cell count relative to DMSO control; melanoma cells; higher = more viable cells). Details: library dose: low library concentration; 72 h.
For `O=c1[nH]nc(Sc2ncc([N+](=O)[O-])s2)n1-c1ccc2c(c1)OCCO2` + Cc1cc(SCc2sc(-c3ccc(C(F)(F)F)c(F)c3)nc2C)ccc1OCC(=O)O [GW0742] (first compound 0.2 µM, partner dose 2 µM), the cell count was 94.4%. In the case of `CC[C@]1(O)C[C@H]2CN(CCc3c([nH]c4ccccc34)[C@@](C(=O)OC)(c3cc4c(cc3OC)N(C=O)[C@H]3[C@@](O)(C(=O)OC)[C@H](OC(C)=O)[C@]5(CC)C=CCN6CC[C@]43[C@@H]65)C2)C1` [vincristine] + O=C(Oc1ccc([N+](=O)[O-])cc1)N1CCC(C(O)(c2ccc3c(c2)OCO3)c2ccc3c(c2)OCO3)CC1 [JZL184] (first compound 0.0001 µM, partner dose 1 µM), the cell count is reported as 82.5%. In the case of `CC(=O)c1c(C)c2cnc(Nc3ccc(N4CCNCC4)cn3)nc2n(C2CCCC2)c1=O` [palbociclib] + C/C(O)=C(\C#N)C(=O)Nc1cc(Br)ccc1Br [LFM-A13] (first compound 0.04 µM, partner dose 2 µM), the cell count is reported as 73.6%. In the case of `CN(c1ncccc1CNc1nc(Nc2ccc3c(c2)CC(=O)N3)ncc1C(F)(F)F)S(C)(=O)=O` + C/C(O)=C(\C#N)C(=O)Nc1cc(Br)ccc1Br [LFM-A13] (first compound 0.08 µM, partner dose 2 µM), the cell count is reported as 77.5%. Work on `O=C(Nc1cc(C(F)(F)F)cc(C(F)(F)F)c1)c1cc(Cl)ccc1O` + C/C(O)=C(\C#N)C(=O)Nc1cc(Br)ccc1Br [LFM-A13] (first compound 0.016 µM, partner dose 2 µM) yielded a cell count of 73%. In the case of `N#CC[C@H](C1CCCC1)n1cc(-c2ncnc3[nH]ccc23)cn1` [ruxolitinib] + C/C(O)=C(\C#N)C(=O)Nc1cc(Br)ccc1Br [LFM-A13] (first compound 1 µM, partner dose 2 µM), the cell count is reported as 96.7%. Work on `O=C(/C=C/c1cccnc1)NCCCCC1CCN(C(=O)c2ccccc2)CC1` + C/C(O)=C(\C#N)C(=O)Nc1cc(Br)ccc1Br [LFM-A13] (first compound 0.01 µM, partner dose 2 µM) yielded a cell count of 74.8%. `Cn1cnc2c(F)c(Nc3ccc(Br)cc3Cl)c(C(=O)NOCCO)cc21` [selumetinib] + O=C(Oc1ccc([N+](=O)[O-])cc1)N1CCC(C(O)(c2ccc3c(c2)OCO3)c2ccc3c(c2)OCO3)CC1 [JZL184] (first compound 0.015 µM, partner dose 1 µM) gave a cell count of 156%. For `Nc1ncn([C@H]2C[C@H](O)[C@@H](CO)O2)c(=O)n1` [decitabine] + O=C(Oc1ccc([N+](=O)[O-])cc1)N1CCC(C(O)(c2ccc3c(c2)OCO3)c2ccc3c(c2)OCO3)CC1 [JZL184] (first compound 0.1 µM, partner dose 1 µM), the cell count was 70.4%. With `O=C(/C=C/c1cccnc1)NCCCCC1CCN(C(=O)c2ccccc2)CC1` + Cc1cc(SCc2sc(-c3ccc(C(F)(F)F)c(F)c3)nc2C)ccc1OCC(=O)O [GW0742] (first compound 0.01 µM, partner dose 2 µM) the cell count was 83.4%. Compound `CS(=O)(=O)c1ccc(C(=O)Nc2ccc(Cl)c(-c3ccccn3)c2)c(Cl)c1` [vismodegib] + C/C(O)=C(\C#N)C(=O)Nc1cc(Br)ccc1Br [LFM-A13] (first compound 1 µM, partner dose 2 µM) has a cell count of 57%. With `CS(=O)(=O)CCNCc1ccc(-c2ccc3ncnc(Nc4ccc(OCc5cccc(F)c5)c(Cl)c4)c3c2)o1` [lapatinib] + Cc1cc(SCc2sc(-c3ccc(C(F)(F)F)c(F)c3)nc2C)ccc1OCC(=O)O [GW0742] (first compound 0.8 µM, partner dose 2 µM) the cell count was 111%. `NC1(c2ccc(-c3nc4ccn5c(=O)[nH]nc5c4cc3-c3ccccc3)cc2)CCC1` + C/C(O)=C(\C#N)C(=O)Nc1cc(Br)ccc1Br [LFM-A13] (first compound 0.4 µM, partner dose 2 µM) gave a cell count of 113%. `CC(=O)c1c(C)c2cnc(Nc3ccc(N4CCNCC4)cn3)nc2n(C2CCCC2)c1=O` [palbociclib] + O=C(Oc1ccc([N+](=O)[O-])cc1)N1CCC(C(O)(c2ccc3c(c2)OCO3)c2ccc3c(c2)OCO3)CC1 [JZL184] (first compound 0.04 µM, partner dose 1 µM) gave a cell count of 65.6%.

These compounds were tested on MEL-HO in the same assay as above. Details: library dose: low library concentration; 72 h.
Compound `COc1ccc(C2=N[C@@H](c3ccc(Cl)cc3)[C@@H](c3ccc(Cl)cc3)N2C(=O)N2CCNC(=O)C2)c(OC(C)C)c1` [Nutlin-3] + C/C(O)=C(\C#N)C(=O)Nc1cc(Br)ccc1Br [LFM-A13] (first compound 0.1 µM, partner dose 2 µM) has a cell count of 94.1%. Work on `CCCCCCCCCCCCCCCCCCOP(=O)([O-])OC1CC[N+](C)(C)CC1` [Perifosine] + O=C(Oc1ccc([N+](=O)[O-])cc1)N1CCC(C(O)(c2ccc3c(c2)OCO3)c2ccc3c(c2)OCO3)CC1 [JZL184] (first compound 0.4 µM, partner dose 1 µM) yielded a cell count of 103%. In the case of `CCN(CC)CCNC(=O)c1c(C)[nH]c(/C=C2\C(=O)Nc3ccc(F)cc32)c1C` [sunitinib] + Cc1cc(SCc2sc(-c3ccc(C(F)(F)F)c(F)c3)nc2C)ccc1OCC(=O)O [GW0742] (first compound 0.4 µM, partner dose 2 µM), the cell count is reported as 99.1%. With `Nc1nc(F)nc2c1ncn2[C@@H]1O[C@H](CO)[C@@H](O)[C@@H]1O` [fludarabine] + C/C(O)=C(\C#N)C(=O)Nc1cc(Br)ccc1Br [LFM-A13] (first compound 0.2 µM, partner dose 2 µM) the cell count was 78.9%. `Cc1cc(Nc2cc(N3CCN(C)CC3)nc(/C=C/c3ccccc3)n2)n[nH]1` + C/C(O)=C(\C#N)C(=O)Nc1cc(Br)ccc1Br [LFM-A13] (first compound 0.04 µM, partner dose 2 µM) gave a cell count of 93%. `NC1(c2ccc(-c3nc4ccn5c(=O)[nH]nc5c4cc3-c3ccccc3)cc2)CCC1` + Cc1cc(SCc2sc(-c3ccc(C(F)(F)F)c(F)c3)nc2C)ccc1OCC(=O)O [GW0742] (first compound 0.4 µM, partner dose 2 µM) showed a cell count of 99.4%. For `Nc1ncn([C@H]2C[C@H](O)[C@@H](CO)O2)c(=O)n1` [decitabine] + C/C(O)=C(\C#N)C(=O)Nc1cc(Br)ccc1Br [LFM-A13] (first compound 0.1 µM, partner dose 2 µM), the cell count was 85.7%. `CCCCCCCCc1ccc(CCC(N)(CO)CO)cc1` [fingolimod] + C/C(O)=C(\C#N)C(=O)Nc1cc(Br)ccc1Br [LFM-A13] (first compound 2 µM, partner dose 2 µM) gave a cell count of 90%. `CC[C@]1(O)C[C@H]2CN(CCc3c([nH]c4ccccc34)[C@@](C(=O)OC)(c3cc4c(cc3OC)N(C=O)[C@H]3[C@@](O)(C(=O)OC)[C@H](OC(C)=O)[C@]5(CC)C=CCN6CC[C@]43[C@@H]65)C2)C1` [vincristine] + Cc1cc(SCc2sc(-c3ccc(C(F)(F)F)c(F)c3)nc2C)ccc1OCC(=O)O [GW0742] (first compound 0.0001 µM, partner dose 2 µM) was tested, and the cell count was 98.1%. Compound `Cc1ccc(Nc2nccc(N(C)c3ccc4c(C)n(C)nc4c3)n2)cc1S(N)(=O)=O` [Pazopanib] + C/C(O)=C(\C#N)C(=O)Nc1cc(Br)ccc1Br [LFM-A13] (first compound 0.4 µM, partner dose 2 µM) has a cell count of 94%. `COc1cc([C@@H]2c3cc4c(cc3[C@@H](O[C@@H]3O[C@@H]5CO[C@@H](C)O[C@H]5[C@H](O)[C@H]3O)[C@H]3COC(=O)[C@H]23)OCO4)cc(OC)c1O` [etoposide] + Cc1cc(SCc2sc(-c3ccc(C(F)(F)F)c(F)c3)nc2C)ccc1OCC(=O)O [GW0742] (first compound 0.02 µM, partner dose 2 µM) showed a cell count of 91.2%. With `Cc1cc(Nc2cc(N3CCN(C)CC3)nc(/C=C/c3ccccc3)n2)n[nH]1` + Cc1cc(SCc2sc(-c3ccc(C(F)(F)F)c(F)c3)nc2C)ccc1OCC(=O)O [GW0742] (first compound 0.04 µM, partner dose 2 µM) the cell count was 115%. Compound `Cn1cnc2c(F)c(Nc3ccc(Br)cc3Cl)c(C(=O)NOCCO)cc21` [selumetinib] + C/C(O)=C(\C#N)C(=O)Nc1cc(Br)ccc1Br [LFM-A13] (first compound 0.015 µM, partner dose 2 µM) has a cell count of 84.2%. Compound `NC(=O)c1ccc(N(C(N)=O)c2c(F)cccc2F)nc1-c1ccc(F)cc1F` + C/C(O)=C(\C#N)C(=O)Nc1cc(Br)ccc1Br [LFM-A13] (first compound 0.4 µM, partner dose 2 µM) has a cell count of 108%. For `O=C(O)[C@@H]1[O][Sb](=[O])([O][Sb]2(=[O])[O][C@H]([C@H](O)CO)[C@H](O)[C@H](C(=O)O)[O]2)[O][C@H]([C@H](O)CO)[C@@H]1O` (stereo not given in full) [stibogluconate] + O=C(Oc1ccc([N+](=O)[O-])cc1)N1CCC(C(O)(c2ccc3c(c2)OCO3)c2ccc3c(c2)OCO3)CC1 [JZL184] (first compound 2 µM, partner dose 1 µM), the cell count was 90.5%. Compound `Cc1ccc(Nc2nccc(N(C)c3ccc4c(C)n(C)nc4c3)n2)cc1S(N)(=O)=O` [Pazopanib] + O=C(Oc1ccc([N+](=O)[O-])cc1)N1CCC(C(O)(c2ccc3c(c2)OCO3)c2ccc3c(c2)OCO3)CC1 [JZL184] (first compound 0.4 µM, partner dose 1 µM) has a cell count of 97.5%.
